In all, about 310,000 compounds went through this assay and about 14,000 (4.5%) showed an effect of 50% or more. The effect is printed as a negative number. The list shows a part of the results.
What follows are molecules tested against human ether-à-go-go-related gene (hERG) potassium channel (human, UniProt Q12809) (assay: primary screen, population patch clamp on CHO cells stably expressing hERG).
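Also: peak tail current of the secondary pulse compared with the same well before compound.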

Chain of human ether-à-go-go-related gene (hERG) potassium channel (Q12809 whole entry, looked up): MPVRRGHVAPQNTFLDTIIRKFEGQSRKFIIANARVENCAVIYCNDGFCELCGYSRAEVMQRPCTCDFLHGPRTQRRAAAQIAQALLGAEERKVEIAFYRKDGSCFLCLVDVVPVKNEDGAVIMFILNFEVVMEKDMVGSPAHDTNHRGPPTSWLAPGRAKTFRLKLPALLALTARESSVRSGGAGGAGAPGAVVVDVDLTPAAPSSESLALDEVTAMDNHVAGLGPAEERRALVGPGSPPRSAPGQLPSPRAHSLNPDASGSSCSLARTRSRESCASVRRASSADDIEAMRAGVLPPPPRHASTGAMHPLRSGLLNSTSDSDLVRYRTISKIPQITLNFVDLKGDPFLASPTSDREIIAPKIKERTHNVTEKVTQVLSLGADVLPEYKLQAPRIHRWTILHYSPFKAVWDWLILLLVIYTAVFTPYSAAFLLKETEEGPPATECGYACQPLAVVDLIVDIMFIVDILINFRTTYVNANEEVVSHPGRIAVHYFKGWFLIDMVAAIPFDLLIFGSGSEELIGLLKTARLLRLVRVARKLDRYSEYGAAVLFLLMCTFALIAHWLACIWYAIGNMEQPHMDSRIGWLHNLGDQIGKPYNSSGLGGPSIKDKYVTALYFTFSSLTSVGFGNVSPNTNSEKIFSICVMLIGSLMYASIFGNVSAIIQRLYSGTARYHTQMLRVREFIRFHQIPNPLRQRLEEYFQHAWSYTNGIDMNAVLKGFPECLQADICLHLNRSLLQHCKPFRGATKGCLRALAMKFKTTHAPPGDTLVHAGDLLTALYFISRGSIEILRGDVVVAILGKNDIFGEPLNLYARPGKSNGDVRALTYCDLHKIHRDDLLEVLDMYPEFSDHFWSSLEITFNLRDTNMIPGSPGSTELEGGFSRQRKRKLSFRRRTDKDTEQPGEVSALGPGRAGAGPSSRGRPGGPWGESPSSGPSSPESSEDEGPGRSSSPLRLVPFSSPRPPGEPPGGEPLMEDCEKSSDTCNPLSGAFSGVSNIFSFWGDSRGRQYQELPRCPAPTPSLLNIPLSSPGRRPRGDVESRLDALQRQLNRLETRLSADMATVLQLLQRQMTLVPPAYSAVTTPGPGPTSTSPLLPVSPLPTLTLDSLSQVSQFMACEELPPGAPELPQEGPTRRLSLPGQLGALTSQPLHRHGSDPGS

Structure (SMILES)	hERG current change (%, negative = inhibition) at 10uM
COC(CNc1ccc([N+](=O)[O-])c(NCC(OC)OC)c1C#N)OC	5.62%
Cc1cc(NS(=O)(=O)c2ccc(NC(=O)CSc3nc4sc(C(=O)O)c(C)c4c(=O)[nH]3)cc2)no1	15.8%
Cc1cccc(OC(C)C(=O)N2CCCN(C)CC2)c1C (stereo not shown)	1.75%
CCCNC(=O)c1ccc(COc2ccc(Cl)cc2)o1	-17.4%
COc1ccccc1NS(=O)(=O)c1cc(C(=O)NCc2ccco2)ccc1C	-26.1%
Cc1c(C(=O)N2CCN(S(=O)(=O)c3cc(F)ccc3F)CC2)oc2ccccc12	-3.34%
Cc1ccc(SCC(=O)N(C)CC(=O)Nc2cccc(F)c2)cc1	-24.8%
Cc1ccc(Nc2nc(N)nc(CSC(=S)N3CCN(c4ccccc4)CC3)n2)cc1	8.32%
Cc1c(/C=N/NC(=O)c2ccccc2O)c2ccccn2c1C(=O)c1ccc(F)cc1	-4.91%
O=C(COC(=O)CCc1nc2ccccc2n1-c1ccccc1)Nc1cccc(Cl)c1	2.63%
Cc1noc(C)c1C(=O)NCc1cccs1	8.73%
O=C(CC1Sc2ccccc2NC1=O)c1ccc(Br)cc1 (stereo not shown)	22.4%
CCCCCCCCS(=O)C1CCS(=O)(=O)C1 (stereo not shown)	4.04%
Cc1ccc(CCSc2ccc(C(C)C)cc2)cn1	-6.79%
CN(CC(=O)Nc1ccc(F)cc1)C(=O)COC(=O)c1ccc(=O)n(Cc2ccccc2)n1	-25%
O=C(O)c1ccc(NS(=O)(=O)c2ccc3c(c2)C(=O)c2cc(S(=O)(=O)Nc4ccc(C(=O)O)cc4)ccc2-3)cc1	6.65%
Nc1[nH]c(=O)[nH]c(=O)c1N=Nc1ccccc1Cl	19.6%
C(CNC1C2CC3CC(C2)CC1C3)CN1CCOCC1.Cl (stereo not shown)	4.95%
Cc1cc(C(=O)NCC(=O)OCC(=O)N(C(C)C)C(C)C)ccc1[N+](=O)[O-]	10.6%
Cc1[nH]c(=O)[nH]c(=O)c1S(=O)(=O)Nc1ccc(F)c(Cl)c1	22%
CC(=O)Nc1cc(C(=O)NCc2ccco2)ccc1Sc1ccc(F)cc1	-40.8%
Cc1cc(N2C(=O)C(O)=C(C(=O)c3cc4ccccc4o3)C2c2ccc(OC(C)C)cc2)no1 (stereo not shown)	0.512%

Structure (SMILES)	hERG current change (%, negative = inhibition) at 10uM
CCc1ccc(C2CC(=O)N(c3cccc(F)c3)C3=C2C(=O)OC3)cc1 (stereo not shown)	-43%
CNC(=O)C(=O)N/N=C/c1ccc(Br)cc1	3.7%
COC(=O)c1cnc(NNS(=O)(=O)c2ccc(C(F)(F)F)cc2)nc1C(F)(F)F	-0.993%
CCCOc1ccc(/C=N/NC(=O)CN2CCCCC2)cc1	-49.7%
Oc1ccc(/C=N/Nc2cc(N3CCOCC3)nc(N3CCOCC3)n2)cc1	-3.15%
Cc1cccc(C(=O)Nc2ccc(C(=O)/C=C/c3ccncc3)cc2)c1	-20%
CCCc1nc(N)c(C#N)c(-c2cccnc2)c1CC	-13.7%
CCc1ccc(NC(=O)C(=O)NCC2CCCO2)cc1 (stereo not shown)	10%
Cc1ccc(N/N=C2\CCS(=O)(=O)c3sccc32)cc1	28.4%
COC(=O)CC(c1ccc(OC)c(OC)c1)c1ccc(OC)c(OC)c1	11.5%
COC(=O)c1ccccc1NC(=O)N1C[C@@H]2C[C@@H](C1)c1cccc(=O)n1C2	-12.4%
O=C(COc1cc2oc(=O)c3c(c2cc1Cl)CCCC3)NCc1cccnc1	-10%
COCCCNc1oc(-c2ccccc2OC)nc1C#N	-11.4%
Cc1ccc(-c2nn(-c3ccccc3)cc2CC(=S)N2CCOCC2)cc1	16.4%
Cc1c(-c2cccs2)[n+](=O)c2c(n1[O-])CCC2	-7.74%
O=C(c1cc(N2C(=O)C3C4CCC(C4)C3C2=O)ccc1Cl)N1CCN(c2ccc(F)cc2)CC1 (stereo not shown)	-42.4%
COc1cccc(C(=O)NN2CC(O)=C(c3nc(C)cs3)C2=N)c1	7.17%
O=C(NCCc1ccc(Cl)cc1)C1CCCN(S(=O)(=O)N2CCCCCC2)C1 (stereo not shown)	-18.7%
CCc1ccc(OCC(=O)Nc2ccc(N3CCN(S(C)(=O)=O)CC3)cc2)cc1	24.3%
CCOC(=O)c1c(NC(=O)CN2C(=O)C(=O)N(C(C)C)C2=O)sc(C)c1CC	-8.82%
Cc1ccc2c(CN3CC(C)CC(C)C3)cc(=O)oc2c1C (stereo not shown)	-6.96%

— PMC4336329 (PLoS ONE, 2015)
